Experimental data as given in the supplement of paper PMC10369915.
This is one part of the list. Cut-off read from the data, not from the text of the source: active = 3.2 or more and inactive = the rest. Most of these values are background signal.

target: SHP2 C-SH2 domain E139D; experiment: enrichment score (SH2-bound / input frequency) (ratio); bacterial display of known human phosphotyrosine sites (pTyr-Var adds point mutants) read by sequencing; higher = stronger binding; tyrosines were phosphorylated by kinases first; conditions: peptide library: pTyr-Var
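Note: displayed peptides selected on beads carrying the immobilized SH2 domain, with library peptides lacking any tyrosine serving as negative controls.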

Enrichment score, inactive:
NQDRTYYERVR [SPEN_Y632_S635R] 0.576
QDRTFYESVRT [SPEN_Y633_YF] 0.518
ELCSEYHKSRK [SPINK5_Y440_R441H] 0.852
RGKDSYETSKL [SPP1_Y225_Q229K] 0.457
RGKDNYETSQL [SPP1_Y225_S224N] 0.557
KPGLVYNKVNP [SPRED3_Y72] 1.2
KPGLIYNKVNP [SPRED3_Y72_V71I] 1.33
VPVPGYTKLPE [SPRR3_Y146] 0.867
FVPAAYVKKLD [SPTAN1_Y1020] 0.744
TDIVAYSGWVQ [SPTBN2_Y477_R480W] 0.985
TLERHYKELQA [SPTBN2_Y834_E835K] 1.04
MGSYNYLGFAR [SPTLC2_Y178] 1.91
MGSYNYLGFAW [SPTLC2_Y178_R183W] 1.15
MGSFNYLGFAW [SPTLC2_Y178_R183W_YF] 0.664
NLTVNYKKNLT [SQOR_Y259_I264T] 0.716
SVCPDYDLCSV [SQSTM1_Y148] 1.07
LDTIQYSKHPP [SQSTM1_Y433] 0.496
QQLVAYYSKHA [SRC_Y232] 0.987
QQLVAYYSKHT [SRC_Y232_A237T] 1.22

target: SHP2 C-SH2 domain wild-type; experiment: as above; conditions: peptide library: pTyr-Var

Enrichment score, inactive:
NQDRTYYERVR [SPEN_Y632_S635R] 0.7
QDRTFYESVRT [SPEN_Y633_YF] 1.27
ELCSEYHKSRK [SPINK5_Y440_R441H] 0.909
RGKDSYETSKL [SPP1_Y225_Q229K] 0.565
RGKDNYETSQL [SPP1_Y225_S224N] 0.534
KPGLVYNKVNP [SPRED3_Y72] 1.41
KPGLIYNKVNP [SPRED3_Y72_V71I] 1.35
VPVPGYTKLPE [SPRR3_Y146] 1.04
FVPAAYVKKLD [SPTAN1_Y1020] 1.12
TDIVAYSGWVQ [SPTBN2_Y477_R480W] 0.829
TLERHYKELQA [SPTBN2_Y834_E835K] 0.988
MGSYNYLGFAR [SPTLC2_Y178] 2.7
MGSYNYLGFAW [SPTLC2_Y178_R183W] 0.983
MGSFNYLGFAW [SPTLC2_Y178_R183W_YF] 0.825
NLTVNYKKNLT [SQOR_Y259_I264T] 0.68
SVCPDYDLCSV [SQSTM1_Y148] 0.956
LDTIQYSKHPP [SQSTM1_Y433] 0.582
QQLVAYYSKHA [SRC_Y232] 0.593
QQLVAYYSKHT [SRC_Y232_A237T] 0.768

target: SHP2 N-SH2 domain L43F; experiment: as above; conditions: peptide library: pTyr-Var

Enrichment score, inactive:
NQDRTYYERVR [SPEN_Y632_S635R] 0.528
QDRTFYESVRT [SPEN_Y633_YF] 0.556
ELCSEYHKSRK [SPINK5_Y440_R441H] 0.727
RGKDSYETSKL [SPP1_Y225_Q229K] 0.713
RGKDNYETSQL [SPP1_Y225_S224N] 0.583
KPGLVYNKVNP [SPRED3_Y72] 1.24
KPGLIYNKVNP [SPRED3_Y72_V71I] 1.25
VPVPGYTKLPE [SPRR3_Y146] 0.993
FVPAAYVKKLD [SPTAN1_Y1020] 0.733
TDIVAYSGWVQ [SPTBN2_Y477_R480W] 0.838
TLERHYKELQA [SPTBN2_Y834_E835K] 0.816
MGSYNYLGFAR [SPTLC2_Y178] 1.77
MGSYNYLGFAW [SPTLC2_Y178_R183W] 0.895
MGSFNYLGFAW [SPTLC2_Y178_R183W_YF] 0.883
NLTVNYKKNLT [SQOR_Y259_I264T] 0.779
SVCPDYDLCSV [SQSTM1_Y148] 1.41
LDTIQYSKHPP [SQSTM1_Y433] 0.824
QQLVAYYSKHA [SRC_Y232] 0.955
QQLVAYYSKHT [SRC_Y232_A237T] 1.13

target: SHP2 N-SH2 domain T42A; experiment: as above; conditions: peptide library: pTyr-Var

Enrichment score, inactive:
NQDRTYYERVR [SPEN_Y632_S635R] 0.582
QDRTFYESVRT [SPEN_Y633_YF] 0.917
ELCSEYHKSRK [SPINK5_Y440_R441H] 0.826
RGKDSYETSKL [SPP1_Y225_Q229K] 0.657
RGKDNYETSQL [SPP1_Y225_S224N] 0.356
KPGLVYNKVNP [SPRED3_Y72] 1.07
KPGLIYNKVNP [SPRED3_Y72_V71I] 1.46
VPVPGYTKLPE [SPRR3_Y146] 0.919
FVPAAYVKKLD [SPTAN1_Y1020] 1.01
TDIVAYSGWVQ [SPTBN2_Y477_R480W] 1.09
TLERHYKELQA [SPTBN2_Y834_E835K] 0.68
MGSYNYLGFAR [SPTLC2_Y178] 2.91
MGSYNYLGFAW [SPTLC2_Y178_R183W] 1.63
MGSFNYLGFAW [SPTLC2_Y178_R183W_YF] 0.594
NLTVNYKKNLT [SQOR_Y259_I264T] 0.54
SVCPDYDLCSV [SQSTM1_Y148] 1.04
LDTIQYSKHPP [SQSTM1_Y433] 0.581
QQLVAYYSKHA [SRC_Y232] 0.734
QQLVAYYSKHT [SRC_Y232_A237T] 0.901

target: SHP2 N-SH2 domain T52S; experiment: as above; conditions: peptide library: pTyr-Var

Enrichment score, inactive:
NQDRTYYERVR [SPEN_Y632_S635R] 0.528
QDRTFYESVRT [SPEN_Y633_YF] 0.925
ELCSEYHKSRK [SPINK5_Y440_R441H] 0.949
RGKDSYETSKL [SPP1_Y225_Q229K] 0.277
RGKDNYETSQL [SPP1_Y225_S224N] 0.521
KPGLVYNKVNP [SPRED3_Y72] 1.16
KPGLIYNKVNP [SPRED3_Y72_V71I] 1.3
VPVPGYTKLPE [SPRR3_Y146] 0.752
FVPAAYVKKLD [SPTAN1_Y1020] 0.882
TDIVAYSGWVQ [SPTBN2_Y477_R480W] 0.791
TLERHYKELQA [SPTBN2_Y834_E835K] 0.895
MGSYNYLGFAR [SPTLC2_Y178] 1.34
MGSYNYLGFAW [SPTLC2_Y178_R183W] 0.784
MGSFNYLGFAW [SPTLC2_Y178_R183W_YF] 0.927
NLTVNYKKNLT [SQOR_Y259_I264T] 0.859
SVCPDYDLCSV [SQSTM1_Y148] 1.39
LDTIQYSKHPP [SQSTM1_Y433] 0.907
QQLVAYYSKHA [SRC_Y232] 0.793
QQLVAYYSKHT [SRC_Y232_A237T] 1.13

target: SHP2 N-SH2 domain wild-type; experiment: as above; conditions: peptide library: pTyr-Var

Enrichment score, inactive:
NQDRTYYERVR [SPEN_Y632_S635R] 0.694
QDRTFYESVRT [SPEN_Y633_YF] 0.728
ELCSEYHKSRK [SPINK5_Y440_R441H] 1.02
RGKDSYETSKL [SPP1_Y225_Q229K] 0.512
RGKDNYETSQL [SPP1_Y225_S224N] 0.543
KPGLVYNKVNP [SPRED3_Y72] 1.24
KPGLIYNKVNP [SPRED3_Y72_V71I] 1.59
VPVPGYTKLPE [SPRR3_Y146] 0.849
FVPAAYVKKLD [SPTAN1_Y1020] 0.896
TDIVAYSGWVQ [SPTBN2_Y477_R480W] 0.757
TLERHYKELQA [SPTBN2_Y834_E835K] 0.983
MGSYNYLGFAR [SPTLC2_Y178] 1.31
MGSYNYLGFAW [SPTLC2_Y178_R183W] 0.94
MGSFNYLGFAW [SPTLC2_Y178_R183W_YF] 0.983
NLTVNYKKNLT [SQOR_Y259_I264T] 0.901
SVCPDYDLCSV [SQSTM1_Y148] 1.05
LDTIQYSKHPP [SQSTM1_Y433] 0.958
QQLVAYYSKHA [SRC_Y232] 0.837
QQLVAYYSKHT [SRC_Y232_A237T] 0.95
